SMILES strings stand for the structures.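 Tested at 5 concentrations; 48 h exposure; 96-well plates; endpoints linearly interpolated, else capped at highest concentration. GI50 marks 50% less growth.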 Certain results were filed several times, with different values. The list is limited to them. An entry can have further records. For some assays here: Values that stand side by side are repeats in other runs, samples, wells, individuals or studies. What stands in brackets tells the records apart. Letters count within one entry.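 TGI: concentration producing complete growth inhibition.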 For some assays here: A record mostly stands for its own series of concentrations, not given here; a value can be the end of its range.

Holding throughout (test): NCI anticancer screen, dose series, 48 h
Test [1] has as its system CCRF-CEM leukemia.
Test [2] has as its system HCT-15 colon.
The subject of test [3] is HL-60(TB) leukemia.
The subject of test [4] is IGROV1 ovarian.
In test [5] the test system is K-562 leukemia.
The subject of test [6] is KM12 colon.
In test [7] the test system is MOLT-4 leukemia.
The test system of test [8] is NCI-H460 lung.
Test [9] deals with RPMI-8226 leukemia.
In test [10] the test system is SK-OV-3 ovarian.
Test [11] deals with SN12C renal.
Test [12] concerns SNB-19 CNS.
Test [13] concerns SW-620 colon.
Test [14] relates to U251 CNS.
Test [15] deals with UACC-62 melanoma.
In test [16] the test system is OVCAR-3 ovarian.
The test system of test [17] is SK-MEL-2 melanoma.
In test [18] the test system is SK-MEL-28 melanoma.
For test [19], the system named is SR leukemia.

`CCc1ccc(/C=C\c2cc(OC)c(OC)c(OC)c2)cc1`: the TGI in test [1] was 498 nM and 17.7 µM; in test [2] it was 306 nM and 10.2 µM; in test [3] it was 80.8 nM and 3.88 µM; in test [4], 453 nM and > 100 µM; in [5] it was 350 nM and > 100 µM; in test [6], 368 nM and 12 µM. The TGI in test [7] is 384 nM and 19.6 µM; in [8], 779 nM and > 100 µM; in [9], 534 nM and 13.5 µM; in test [10], 916 nM and > 100 µM; in [11], 537 nM and > 100 µM; in [12], 748 nM and > 100 µM. Also, the TGI in test [13] is 509 nM and > 100 µM; in [14] it was 257 nM and 14.1 µM; in test [15], 777 nM and 72.5 µM.
As to `CC[C@@H]1C(=O)N(C)c2cnc(Nc3ccc(C(=O)NC4CCN(C)CC4)cc3OC)nc2N1C1CCCC1`, the GI50 in [4] is 5.37 nM [sample A, mean of 2 tests] and 83.2 nM [sample B, mean of 3 tests]; in test [17] it was 5.79 nM [sample A, 1 test] and 1.39 µM [sample B, 1 test]; in [18] it was 1.09 µM [sample A, 1 test] and < 10.6 nM [sample B, mean of 3 tests]. The TGI was 1.78 µM [sample A, mean of 2 tests] and 128 nM [sample B, mean of 3 tests] in [16]; 1.71 µM [sample A, mean of 2 tests] and 96.9 nM [sample B, mean of 3 tests] in test [19].

(Values after PubChem BioAssay (NCI).)
